Source: article PMC4336329 (PLoS ONE, 2015)
In all, about 310,000 compounds went through this assay and about 14,000 (4.5%) showed an effect of 50% or more. The effect is printed as a negative number. Some of the results follow.

molecular target: human ether-à-go-go-related gene (hERG) potassium channel (human, UniProt Q12809); experiment: primary screen, population patch clamp on CHO cells stably expressing hERG
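Also: peak tail current of the secondary pulse compared with the same well before compound.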

Sequence of human ether-à-go-go-related gene (hERG) potassium channel (Q12809 whole entry, looked up): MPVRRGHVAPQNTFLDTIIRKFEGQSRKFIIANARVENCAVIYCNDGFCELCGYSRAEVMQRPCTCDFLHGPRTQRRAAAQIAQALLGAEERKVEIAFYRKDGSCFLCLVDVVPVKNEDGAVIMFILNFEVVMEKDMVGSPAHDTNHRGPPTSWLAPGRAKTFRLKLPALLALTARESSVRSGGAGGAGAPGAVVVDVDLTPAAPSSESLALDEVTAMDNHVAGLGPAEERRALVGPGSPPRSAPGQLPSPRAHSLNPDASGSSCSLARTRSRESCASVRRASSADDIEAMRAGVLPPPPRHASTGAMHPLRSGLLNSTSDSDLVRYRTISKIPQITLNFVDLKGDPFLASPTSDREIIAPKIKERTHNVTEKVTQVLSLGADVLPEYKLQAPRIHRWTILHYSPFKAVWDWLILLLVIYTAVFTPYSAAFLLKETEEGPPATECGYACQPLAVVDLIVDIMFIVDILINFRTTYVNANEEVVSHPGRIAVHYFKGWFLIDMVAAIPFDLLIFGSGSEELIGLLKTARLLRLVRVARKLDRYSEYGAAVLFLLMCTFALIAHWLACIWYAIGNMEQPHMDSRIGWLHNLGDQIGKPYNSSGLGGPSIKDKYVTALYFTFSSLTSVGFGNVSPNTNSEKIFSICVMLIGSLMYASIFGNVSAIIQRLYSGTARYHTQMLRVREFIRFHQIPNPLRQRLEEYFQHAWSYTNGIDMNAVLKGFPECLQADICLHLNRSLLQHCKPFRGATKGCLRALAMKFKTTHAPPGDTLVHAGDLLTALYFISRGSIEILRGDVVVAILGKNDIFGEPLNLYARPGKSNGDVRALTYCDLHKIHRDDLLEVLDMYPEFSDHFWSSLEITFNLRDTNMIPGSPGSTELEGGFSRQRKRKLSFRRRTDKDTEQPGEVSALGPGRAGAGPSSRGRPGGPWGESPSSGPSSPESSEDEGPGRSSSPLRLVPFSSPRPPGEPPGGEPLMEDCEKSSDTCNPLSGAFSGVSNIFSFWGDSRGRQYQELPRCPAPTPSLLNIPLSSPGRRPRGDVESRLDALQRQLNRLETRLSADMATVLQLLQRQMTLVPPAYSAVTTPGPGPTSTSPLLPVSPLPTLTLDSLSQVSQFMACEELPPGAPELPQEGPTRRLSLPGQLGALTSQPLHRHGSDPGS

In order of falling “hERG current change (%, negative = inhibition) at 10uM” value:
1. COC(=O)c1ccc(/C=N\NC(=O)c2c(C)nc3ccc(Cl)cn23)cc1  24.7%
2. O=C(O)CCCn1cc(NC(=O)c2sc3ccccc3c2Cl)cn1  24.5%
3. O=C1C=C(c2cc(C(F)(F)F)cc(C(F)(F)F)c2)C[C@@H](c2ccc(Cl)cc2)C1  22.3%
4. COc1ccc(N2C(=O)CSC(c3ccccc3)C2=O)cc1 (centres unmarked)  21.3%
5. O=C(Cc1ccc(Cl)cc1)NNC(=O)C1CC=CCC1C(=O)O (centres unmarked)  20.9%
6. Cc1ccc(Cl)cc1NC(=S)N(Cc1cccs1)C1CCCC1  20.1%
7. O=C(Sc1ccc(Cl)cc1)c1cccc(Cn2cc(C(F)(F)F)ccc2=O)c1  18.6%
8. COc1ccc(C)cc1NC(=O)Nc1ccc(Br)cn1  15.5%
9. CC(NC(=O)C1CC=CCC1C(=O)O)C1CC2CCC1C2 (centres unmarked)  15.5%
10. Cc1cccc(NC(=O)C2CC3CCC2C3)c1C (centres unmarked)  15.1%
11. CCOc1ccc(CSc2nc(C)cc(COC)c2C#N)cc1OCC  14.5%
12. CC(=O)NC(=O)c1ccc(-c2ccc(Cl)cc2)o1  11.7%
13. N=C1/C(=C/c2ccc(OCc3ccccc3)cc2)C(=O)N=C2SC(CC(=O)N3CCOCC3)=NN12  11.6%
14. CCOC(=O)c1sc(=S)n(-c2cc(OC)ccc2OC)c1N  11.6%
15. CCOc1ccc(NC(=O)Cn2ncc3ccccc32)cc1  11.6%
16. CSc1cc(C)nc(NC(C)=O)n1  10.4%
17. O=C(Nc1ccc(C2=NCCN2)cc1)c1ccc(C(=O)Nc2ccc(C3=NCCN3)cc2)c(Cl)c1  10.4%
18. CCOc1ccc(C(=O)Nc2nnc(SCC(=O)NCC3CCCO3)s2)cc1OCC (centres unmarked)  9.52%
19. Cc1ccc(NC(=O)c2ccc(=O)[nH]n2)cc1S(=O)(=O)Nc1ccccc1Cl  8.7%
20. CC1CCCC(NC(=O)CCC(=O)c2ccc(F)cc2)C1C (centres unmarked)  8.27%
21. CC(=O)CCn1cc([N+](=O)[O-])nc1C  7.91%
22. CC(C#N)Sc1nnc(Nc2ccccc2)s1 (centres unmarked)  7.3%
23. CC(=O)Nc1ccc(S(=O)(=O)N2CCN(C(=O)c3ncoc3-c3ccc(C)cc3)CC2)cc1  6.74%
24. Cc1ccc(C)c(-n2c(SCC(=O)Nc3nnc(C)s3)nnc2-c2ccoc2C)c1  5.96%
25. Cc1nn(C)c(C)c1/C=N/NC(=O)CCn1nc(C)c([N+](=O)[O-])c1C  5.43%
26. CCOC(=O)c1sc(=NC(=O)COc2ccccc2)n(C)c1C  4.66%
27. CCOC(=O)c1c(CSc2ccccc2)oc2ccc(O)cc12  3.91%
28. COCC(=O)N1CCC(Oc2ccc(C(=O)N(C)Cc3nccs3)cc2)CC1  3.28%
29. CCCCc1nc2cc(C(=O)NCc3ccccn3)ccc2o1  2.61%
30. CCOC(=O)C1=C(N)c2ccccc2CC1C(C)C (centres unmarked)  1.14%
31. CN(C)c1cc(-c2ccc(Cl)cc2Cl)oc(=O)c1Cl  0.166%
32. CCCCCCSc1ccc([C@H]2N[C@@](CC(C)C)(C(=O)OC)[C@H]3C(=O)N(CC)C(=O)[C@@H]23)cc1.O=C(O)C(F)(F)F  -0.125%
33. Cc1ccc(-n2[nH]c3c4c(ccc3c2=O)C(=O)c2ccccc2C4=O)cc1  -0.491%
34. O=C(Nc1ccncc1)Nc1ccccc1Cl  -1.45%
35. O=C(NCc1ccccc1Cl)C1CCCN(C(=O)Nc2ccc(F)cc2)C1 (centres unmarked)  -2.13%
36. O=C1COc2ccc(C(=O)CSc3nnc(Cc4ccccc4)o3)cc2N1  -3.32%
37. Cl.Oc1ccc(Cl)cc1CNCc1ccc(Cl)nc1  -6.22%
38. Fc1ccccc1C1CCN(Cc2nc(COc3ccccc3)no2)C1 (centres unmarked)  -9.99%
39. CC(C)N(C)Cc1nnnn1CC(=O)N(C)Cc1ccc(F)cc1  -14.2%
40. CCOC(=O)N1CCN(S(=O)(=O)c2cc([N+](=O)[O-])ccc2C)CC1  -14.4%
41. CN(CC(=O)Nc1ccncc1)S(=O)(=O)c1ccc(Br)cc1  -17.9%
42. Cc1c(NC(=O)CSc2ccc3ccccc3n2)c(=O)n(-c2ccccc2)n1C  -21.1%
43. Cc1ccc(/C=N/NC(=O)CN2CCN(Cc3ccccc3Cl)CC2)o1  -23.5%
44. O=C(Nc1cccc(C(=O)N2CCCCC2)c1)c1ccccc1Br  -24.4%
45. Cc1ccc(NC(=O)C(C)c2cccc(C(=O)c3ccccc3)c2)cc1O (centres unmarked)  -26.8%
46. O=C(NCCCc1ccccc1)C1CCN(c2nnc(-n3cccc3)s2)CC1  -27%
47. O=C(Nc1cccc(S(=O)(=O)C(F)F)c1)c1ccc(S(=O)(=O)N2CCOCC2)cc1  -30.8%
48. O=C(Cn1cnc2c(cnn2-c2ccccc2)c1=O)Nc1cc(S(=O)(=O)N2CCOCC2)ccc1Cl  -32.2%
49. CSc1nc2nccc(/C=C\c3ccccc3)n2n1  -33.6%
50. Cn1c(C(=O)N2CCCC(C(=O)NCCc3ccccc3)C2)cc2sccc21 (centres unmarked)  -36.5%
51. Cc1cc(C)n2nc(C(=O)OC(C)C(=O)c3cc(C)c(C)cc3C)nc2n1 (centres unmarked)  -40%
52. OCC1(Cc2ccccc2C(F)(F)F)CCN(Cc2ccccc2)CC1  -41.3%
53. Cc1ccc(C)c(Nc2cc(C)nc3ccccc23)c1  -49.5%
54. COc1ccc(OCCN2CCN(C(=O)c3ccc(OC(F)F)c(OC)c3)CC2)cc1  -72.6%
55. O=C(NCCN1CCN(C(=O)c2ccc(F)cc2)CC1)C(=O)NCc1ccccc1  -73.9%
56. O=C(Nc1ccccc1N1CCN(C(=O)c2ccccc2)CC1)c1ccco1  -74.2%
